# In PubChem BioAssay (NCI):
#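 All cell lines were grown in 96-well plates and treated with compound for 48 hours. Here, GI50 denotes the concentration required for 50% inhibition of growth. TGI is the concentration that stops growth completely.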
# System: NCI-H322M lung
# Assay: NCI-60 cell line screen, 48 h
Structure (SMILES),GI50 [µM],TGI [µM]
CN(C)CCCOc1ccc(C(=C(c2ccccc2)C2CCCC2)c2ccc(OCCCN(C)C)cc2)cc1,2.35,6.05
COc1ccc(-c2cnc(NC(=O)CCCCCCNC(=O)C(O)(O)C(F)(F)F)s2)cc1,1.44,18.9
COc1ccc(CNS(=O)(=O)/N=C2\NC(=O)NC2=C(Cl)Cl)cc1,2.06,> 100
CNC(=O)c1cc(-c2ccc(NC(=O)Nc3ccc(N4CCN(C)CC4)c(C(F)(F)F)c3)cc2)nc2cccnc12,15.6,29.8
C#C[C@]1(O)CC[C@H]2[C@@H]3CC=C4c5sc(Nc6ncccc6C)nc5CC[C@]4(C)[C@H]3CC[C@@]21C,3.3,15.4
CC(C)(O)c1cncc(-c2ccc3ncnc(N4CCc5cc(F)c(Cl)cc54)c3c2)c1,0.641,> 100
